Measured values: the RNAGym collection of RNA variant scans (doi:10.1073/pnas.2313332121)
Variants at the floor of the assay are shown more often than the library holds them.

B1: TPR 5TU (parent)
chain: GGAUCUUCUCGAUCUAACAAAAAAGACAAAUCUGCCACAAAGCUUGAGAGCAUCUUCGGAUGCAGAGGCGGCAGCCUUCGGUGGCGCGAUAGCGCCAACGUUCUCAACUAUGACACGCAAAACGCGUGCUCCGUUGAAUGGAGUUUAUCAUG

Variants of: B1
Assay: polymerase ribozyme fitness, log enrichment relative to wild type (log ratio); higher = more active; in vitro selection for triplet polymerase activity
Procedure, shortened: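 A single round of triplicate in vitro selection, including frozen incubation at −7 °C, was applied to PCR-built, transcribed mutant libraries of each subunit of a heterodimeric triplet polymerase ribozyme. Illumina sequencing of input and output libraries retained genotypes with ≥10 input reads and ≥1 read per output. Fitness is the base-2 logarithm of genotype enrichment divided by wild-type enrichment, from inverse-variance-weighted replicate averages.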

Row | Variant | polymerase ribozyme fitness (log ratio)
1 | C10G A17G A26G C54G G65C G84U G141A C149A | ≤ -4.2
2 | C10G A17G G48A A52U U78C A91U C95U U135G | ≤ -4.2
3 | C10G A19C | ≤ -4.2
4 | C10G A19C A28C A60G G68U U144G | ≤ -4.2
5 | C10G A19G A22U G74A G83U C85G | ≤ -4.2
6 | C10G A19G A37C U56G G84U G100C C114U | ≤ -4.2
7 | C10G A19U G46A C54G G84A C95U C105U C123A | ≤ -4.2
8 | C10G A19U G83A C85A A97C U109C | ≤ -4.2
9 | C10G A20C C36A U53A U134A A142U | ≤ -4.2
10 | C10G A20G G50U G59C C87U | ≤ -4.2
11 | C10G A20U A37C A41C A49G A52G G59C G126A | ≤ -4.2
12 | C10G A21G A40U C85G | ≤ -4.2
13 | C10G A22U U45G C79A A91G | ≤ -4.2
14 | C10G A23C C76U C87U | ≤ -4.2
15 | C10G A24C A30G A66U C79U G86C C114G | ≤ -4.2
16 | C10G A24G C27A A64G G81A A91U C93U A142U | ≤ -4.2
17 | C10G A24G C32A G42U C75A C79A C85G A98C A110U A115U G140C U145G | ≤ -4.2
18 | C10G A24U A29C G50C G80C G94U G124A | ≤ -4.2
19 | C10G A24U G48C C54U G83A C132G G133C | ≤ -4.2
20 | C10G A24U G128A | ≤ -4.2
21 | C10G A26C C93A G100A U139C U145A | ≤ -4.2

Row | Variant | polymerase ribozyme fitness (log ratio)
22 | C10G A26C U55G C85A G126A | ≤ -4.2
23 | C10G A26G C85G G143C | ≤ -4.2
24 | C10G A26U G67U G83U C93G | ≤ -4.2
25 | C10G A28C C38A C43U C95G G143U | ≤ -4.2
26 | C10G A28C C51U C87U G88A A91C G117C G124U U130G | ≤ -4.2
27 | C10G A28U A52G G62U C96U U101G G117A U127A C131U G133A U148A | ≤ -4.2
28 | C10G A29C A30U G48U U55A A89U C93G G128U | ≤ -4.2
29 | C10G A29C A41C G50A A97C A98U G124A A142G | ≤ -4.2
30 | C10G A29C C75A G92U G128U C131U G140U | ≤ -4.2
31 | C10G A29C U53A G80A C93U A119C U144G | ≤ -4.2
32 | C10G A29U G34U C38A C87G G88A A122U G136C | ≤ -4.2
33 | C10G A30C C93G U101G | ≤ -4.2
34 | C10G A30G G42U A47C C76U C93G A121U | ≤ -4.2
35 | C10G A30U A60C A73C G81U G94U U139A A150C | ≤ -4.2
36 | C10G A40C C93A U104A G141C U144G G152A | ≤ -4.2
37 | C10G A40C U78G G84U G88U G141U | ≤ -4.2
38 | C10G A40U A47G A60U A91G G92A | ≤ -4.2
39 | C10G A40U G58C G86A C114U U134G G143C | ≤ -4.2
40 | C10G A41C G71A G86A C125G A142U | ≤ -4.2
41 | C10G A49C G59C A97U | ≤ -4.2
42 | C10G A52G U56A C96U G140U | ≤ -4.2

Row | Variant | polymerase ribozyme fitness (log ratio)
43 | C10G A52U C72U G86U C93U C116G G124A U144C | ≤ -4.2
44 | C10G A60C G71U C85A C87A G126A G152A | ≤ -4.2
45 | C10G A60G A73G A147C | ≤ -4.2
46 | C10G A73G A89U U102G A142C G152U | ≤ -4.2
47 | C10G A73G C85G G124A A150U | ≤ -4.2
48 | C10G A73G G92U | ≤ -4.2
49 | C10G A89G | ≤ -4.2
50 | C10G A89G C103U U134G G141A U151A | ≤ -4.2
51 | C10G A106C G143C | ≤ -4.2
52 | C10G C14G A17G A24U U82G C93G | ≤ -4.2
53 | C10G C14G A22G C38A C79A A89U G94U C123U A142C G152A | ≤ -4.2
54 | C10G C14G A52G U53A U56A G59C U77G G92C | ≤ -4.2
55 | C10G C14G G42A A47C C87U C93G A106G | ≤ -4.2
56 | C10G C14G G94A U139C | ≤ -4.2
57 | C10G C14U A24G A49C U53A G67A C103G G141A C149G | ≤ -4.2
58 | C10G C14U C36A C79U G92U | ≤ -4.2
59 | C10G C14U G50A U53A C95G A97G | ≤ -4.2
60 | C10G C18G U31G G34C G67C C75U U77C C96U U151G | ≤ -4.2
61 | C10G C18G U55C C57U U61A | -4.15
62 | C10G C27A C36G G48A C51A C93G G100C G140C | ≤ -4.2
63 | C10G C27A U53G C69G G94A C99U U101G U127C G140C C149G | ≤ -4.2

Row | Variant | polymerase ribozyme fitness (log ratio)
64 | C10G C27A U82C G83A A91U | ≤ -4.2
65 | C10G C32A G58U G59U U130C | ≤ -4.2
66 | C10G C35G G94C | ≤ -4.2
67 | C10G C35U G62C C63G G65U G84U U101G A107C G117U | ≤ -4.2
68 | C10G C36U A52G G94C A107U | ≤ -4.2
69 | C10G C36U U55A C95U C96A A122C | ≤ -4.2
70 | C10G C38U G50A U90A U127C G128U U145A | ≤ -4.2
71 | C10G C38U U56G A91G G141U C149A | ≤ -4.2
72 | C10G C43A G58A G67A A91U A121G A137G U146G | ≤ -4.2
73 | C10G C43U A91U U144C U146A | ≤ -4.2
74 | C10G C43U C87U | ≤ -4.2
75 | C10G C54U C76G C95U U101C | ≤ -4.2
76 | C10G C57A G80C C95U C116U | ≤ -4.2
77 | C10G C63U G94C U104C A106G C108A U139C | ≤ -4.2
78 | C10G C72G C87G G94C C108G C114A U146A | ≤ -4.2
79 | C10G C75G C96U A120C | ≤ -4.2
80 | C10G C75U | -3.87
81 | C10G C76A C93U A138C | ≤ -4.2
82 | C10G C85U | -3
83 | C10G C87G | ≤ -4.2
